The supplement of paper PMC8183993
Values joined by “and” are separate entries in the source; they are usually repeats but may differ in a detail not shown here. Identical values can stand only once. Counter-ions that a name gives are not always drawn. ± gives the standard deviation of the averaged measurements. Over roughly 3,200 compounds, “nuclei count (viability) relative to DMSO” has its median near 99; the lowest 2% begin near 16. The list shows a part of the results.

Test system: U2OS
Test: nuclei count (viability) relative to DMSO (% of DMSO); higher = more viable cells
Settings: 10 µM; 24 h
Experimental: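 Primary image-based screen in U2OS cells: compounds at 10 uM for 24 h, then a 1 h o-propargyl-puromycin (OPP) pulse, click labelling, and high-throughput microscopy. Mean cytoplasmic OPP intensity and nuclei count were normalised to DMSO wells within each plate (DMSO = 100) and averaged over triplicate plates.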

Row | SMILES | nuclei count
1 | O=C(O)c1ccccc1Nc1cccc(OCc2ccc3ccccc3n2)c1 [SR 2640 hydrochloride] | 94.8
2 | CC(C)(C)NCC(O)c1ccc(O)c(CO)c1 (stereo unspecified) [Salbutamol] | 105
3 | CCCCC[C@H](O)CC(=O)CCc1ccc(O)c(OC)c1 [Gingerol] | 99.4
4 | CCCCC[C@H](O)CC(=O)CCc1ccc(O)c(OC)c1 [6-Gingerol] | 104
5 | CO[C@H]1C[C@@H]2CC[C@@H](C)[C@@](O)(O2)C(=O)C(=O)N2CCCC[C@H]2C(=O)O[C@H]([C@H](C)C[C@@H]2CC[C@@H](OP(C)(C)=O)[C@H](OC)C2)CC(=O)[C@H](C)/C=C(\C)[C@@H](O)[C@@H](OC)C(=O)[C@H](C)C[C@H](C)/C=C/C=C/C=C/1C [Deforolimus (MK-8669)] | 91.7
6 | CO[C@H]1C[C@@H]2CC[C@@H](C)[C@@](O)(O2)C(=O)C(=O)N2CCCC[C@H]2C(=O)O[C@H]([C@H](C)C[C@@H]2CC[C@@H](OP(C)(C)=O)[C@H](OC)C2)CC(=O)[C@H](C)/C=C(\C)[C@@H](O)[C@@H](OC)C(=O)[C@H](C)C[C@H](C)/C=C/C=C/C=C/1C [Deforolimus (Ridaforolimus)] | 93.2
7 | CCn1c(=O)n(C2=C(CO)CN(CC3CCCCCCC3)CC2)c2ccccc21 | 103
8 | Cn1c(=O)c2c(ncn2C)n(C)c1=O [Caffeine] | 105.4 ± 0.12
9 | CC[C@@H]1C(=O)N(C)c2cnc(Nc3ccc(C(=O)NC4CCN(C)CC4)cc3OC)nc2N1C1CCCC1 | 30.6
10 | O=C1CCc2c(ccc3ccccc23)O1 [Splitomicin] | 104 ± 5.1
11 | O=C1c2ccccc2C(Cc2ccncc2)(Cc2ccncc2)c2ccccc21 [XE 991 dihydrochloride] | 106
12 | Cc1c(OCC(F)(F)F)ccnc1C[S+]([O-])c1nc2ccccc2[nH]1 (stereo unspecified) [Lansoprazole] | 105.6 ± 0.19
13 | CCN1CCN(c2cc(-c3ccc(F)cc3)c3c(n2)CCCCCC3)CC1 [Blonanserin (Lonasen)] | 98.7
14 | C#CCN(C)CC1=Cc2ccccc2Oc2ccccc21 | 107
15 | CNC(=O)CN1CCC(Oc2cc3c(Nc4cccc(Cl)c4F)ncnc3cc2OC)CC1 | 96.1
16 | CCCS(=O)(=O)Nc1ccc(F)c(C(=O)c2c[nH]c3ncc(Cl)cc23)c1F | 101
17 | Nc1nc(N)nc(-c2cc(Cl)ccc2Cl)n1 [Irsogladine maleate] | 106 ± 5.5
18 | CCN1CCCC1CNC(=O)c1cc(S(=O)(=O)CC)c(N)cc1OC (stereo unspecified) [Amisulpride] | 87 ± 19
19 | COc1cc(N)c(Cl)cc1C(=O)NC1CCN(Cc2ccccc2)CC1 [Clebopride maleate] | 105
20 | O=C(Nc1cccc(Cl)c1)Nc1ncc(CCNc2ncnc3ccsc23)s1 [SNS-314 Mesylate] | 48.6
21 | Nc1ncnc2c1c(-c1cccc(OCc3ccccc3)c1)cn2C1CC(CN2CCCC2)C1 (stereo unspecified) | 70.4
22 | COc1ccccc1OCCNCC(O)COc1cccc2[nH]c3ccccc3c12 (stereo unspecified) [Carvedilol] | 101 ± 3.4
23 | CCC(CC)[C@H](NC(C)=O)[C@@H]1[C@H](O)[C@@H](C(=O)O)C[C@H]1NC(=N)N [Peramivir  Trihydrate] | 106
24 | COc1cc2c(cc1OC)-c1cc3nc4ccccc4nc3n1C(C)(C)C2 | 105
25 | CC(C)c1nc(CN(C)C(=O)N[C@H](C(=O)N[C@@H](Cc2ccccc2)C[C@H](O)[C@H](Cc2ccccc2)NC(=O)OCc2cncs2)C(C)C)cs1 [Ritonavir] | 103
26 | COc1c(O)cc2c(c1O)[C@@H]1O[C@H](CO)[C@@H](O)[C@H](O)[C@H]1OC2=O [Bergenin (Cuscutin)] | 98.5

Row | SMILES | nuclei count
27 | CC(C)[C@H]1CC[C@H](C(=O)N[C@H](Cc2ccccc2)C(=O)O)CC1 [Nateglinide (Starlix)] | 96.1
28 | Nc1cccc(-c2cc3c(Oc4cccc(O)c4)ncnc3[nH]2)c1 | 42.4 and 45.9
29 | COc1ccc(C(C)=O)c(O)c1 [Paeonol] | 107
30 | COc1ccc(-n2nc(C(N)=O)c3c2C(=O)N(c2ccc(N4CCCCC4=O)cc2)CC3)cc1 [Apixaban] | 119
31 | COc1ccc(CCCOC(Cn2ccnc2)c2ccc(OC)cc2)cc1 (stereo unspecified) | 56.2 and 54.1
32 | C[C@H]1CC[C@@]2(OC1)O[C@H]1C[C@H]3[C@@H]4CC[C@@H]5C[C@@H](O[C@@H]6O[C@H](CO)[C@H](O)[C@H](O)[C@H]6O[C@@H]6O[C@H](CO)[C@@H](O)[C@H](O)[C@H]6O)CC[C@]5(C)[C@H]4CC[C@]3(C)[C@H]1[C@@H]2C [Timosaponin A-III] | 37.6
33 | C[C@@H](O)[C@H]1C(=O)N2C(C(=O)OCOC(=O)C(C)(C)C)=C(SC3CN(C4=NCCS4)C3)[C@H](C)[C@H]12 [Tebipenem pivoxil (L-084)] | 97.3
34 | CCCCOc1ccc(OCCCN2CCOCC2)cc1 [Pramoxine hydrochloride] | 88.4
35 | O=C(NCC1CCCCN1)c1cc(OCC(F)(F)F)ccc1OCC(F)(F)F (stereo unspecified) [Flecainide acetate] | 105 ± 7.7
36 | CC1CCc2cc(F)cc3c(=O)c(C(=O)O)cn1c23 (stereo unspecified) [Flumequine] | 94.8
37 | Cc1nc2c(OCc3ccccc3)cccn2c1CC#N | 99
38 | CCOC(=O)C1=C(C)NC(C)=C(C(=O)OC)C1c1cccc([N+](=O)[O-])c1 (stereo unspecified) [Nitrendipine] | 101 ± 4
39 | c1ccc(N2CCN(CCCOc3ccc4c(c3)OCO4)CC2)cc1 [BP 554 maleate] | 97.5
40 | Cc1cc(Cc2cc(C)cc(C(C)(C)C)c2O)c(O)c(C(C)(C)C)c1 | 96.3
41 | CCn1cc(C(=O)O)c(=O)c2cc(F)c(N3CCNCC3)cc21 [Norfloxacin] | 92.5
42 | N[C@@H](C(=O)O)c1ccc(O)c(C(=O)O)c1 [(R)-3-Carboxy-4-hydroxyphenylglycine] | 99.9
43 | O=C(c1ccc(OCCN2CCCCC2)cc1)c1c(-c2ccc(O)cc2)sc2cc(O)ccc12 [Raloxifene hydrochloride] | 105 ± 2.7
44 | CC(C)[C@H](CO)Nc1nc(Nc2cc(N)cc(Cl)c2)c2ncn(C(C)C)c2n1 [Aminopurvalanol A] | 38.4
45 | CNC(=O)c1ccc(N2C(=S)N(c3cnc(C#N)c(C(F)(F)F)c3)C(=O)C23CCC3)cc1F | 103
46 | COc1cc(C[C@H]2C(=O)OC[C@@H]2Cc2ccc(OC)c(OC)c2)ccc1O [Arctigenin] | 103
47 | NS(=O)(=O)c1cc2c(cc1C(F)(F)F)NC(Cc1ccccc1)NS2(=O)=O (stereo unspecified) [Bendroflumethiazide] | 108
48 | CC(CN1c2ccccc2Sc2ccccc21)N(C)C (stereo unspecified) [Promethazine hydrochloride] | 106
49 | CNC(=O)c1ccccc1Sc1ccc2c(/C=C/c3ccccn3)n[nH]c2c1 [Axitinib] | 46.1
50 | CN(C)[C@@H]1CCc2[nH]c3ccc(NC(=O)c4ccc(F)cc4)cc3c2C1 | 89.9
51 | CCOc1cc(N2CCC(O)CC2)ccc1Nc1ncc2c(n1)N(C)c1ccccc1C(=O)N2C | 95.5
52 | CC1(C)O[C@@H]2[C@@H](CO[C@@]3(COS(N)(=O)=O)OC(C)(C)O[C@@H]23)O1 [Topiramate] | 83.8 ± 1.1

Row | SMILES | nuclei count
53 | CC[C@H](C)[C@H](N)C(=O)N1CCSC1 [P32/98 hemifumarate salt] | 106
54 | COc1cc(NS(=O)(=O)c2ccc(N)cc2)nc(OC)n1 [Sulfadimethoxine] | 89.9
55 | CC[N+](CC)(CC(=O)Nc1c(C)cccc1C)Cc1ccccc1 [Denatonium benzoate] | 106
56 | CCNc1nc(Nc2cc(F)c(C(=O)N3CCOCC3)cc2OC)ncc1C(F)(F)F | 96.2
57 | CN(C)c1cc(NC(=O)CNC(C)(C)C)c(O)c2c1C[C@H]1C[C@H]3[C@H](N(C)C)C(O)=C(C(N)=O)C(=O)[C@@]3(O)C(O)=C1C2=O [Tigecycline] | 101
58 | O=C1Nc2ccc(I)cc2/C1=C/c1cc(Br)c(O)c(Br)c1 | 95.8 and 96.4
59 | O=C1N=C(O)NC1(c1ccccc1)c1ccccc1 [Phenytoin sodium (Dilantin)] | 99.7
60 | O=C(c1ccc(F)cc1)N1CCC[C@H](c2nc(-c3ccc(F)cc3)no2)C1 | 105
61 | Cc1cccc(Nc2ccncc2S(=O)(=O)NC(=O)NC(C)C)c1 [Torsemide] | 102
62 | COc1cc2c(cc1OC)-c1c/c(=N\c3c(C)cc(C)cc3C)n(C)c(=O)n1CC2 [Trequinsin hydrochloride] | 96
63 | Cc1nc2ccc(NC(=O)Nc3ccnc4cccnc34)cc2o1 | 99.6
64 | Oc1nc(-c2ccc(C(F)(F)F)cc2)nc2c1CSCC2 | 92.6 and 94.5
65 | NC(=O)N1c2ccccc2CC(=O)c2ccccc21 [Oxcarbazepine] | 99.6
66 | CN(C)c1ccc(-c2nc3ncc(Cl)c(N4CCN(CC(=O)Nc5nccs5)CC4)c3[nH]2)cc1 | 94.7
67 | Clc1cccc(Nc2nnc(-c3ccccc3)c3ccccc23)c1 | 96.3
68 | CC(C)Cn1cnc2c(N)nc3ccccc3c21 [Imiquimod] | 96.2 ± 2
69 | CC(C)n1cnc2c(NCCc3ccc(O)cc3)nc(-c3csc4ccccc34)nc21 [StemRegenin 1] | 95.2
70 | CC(C)NC(=N)NC(=N)Nc1ccc(Cl)cc1 [Proguanil hydrochloride] | 102
71 | Cc1nc2c(O)cccc2c(=O)[nH]1 | 96.9
72 | CCNC(=O)c1cc2c(-c3cc(OCCN4CCCC4)c(Cl)cc3Cl)nc(N)nc2s1 | 67
73 | c1cc(CN2CCCNCCNCCCNCC2)ccc1CN1CCCNCCNCCCNCC1 [Plerixafor 8HCl (AMD3100 8HCl)] | 103
74 | CCCCc1nc2ccn(Cc3cccs3)c(=O)c2n1Cc1ccc(-c2ccccc2-c2nn[nH]n2)cc1 | 102
75 | Cc1cc(C#N)cc(C)c1Oc1nc(Nc2ccc(C#N)cc2)nc(N)c1Br [Etravirine (TMC125)] | 82.9
76 | Cn1cncc1[C@@](N)(c1ccc(Cl)cc1)c1ccc2c(c1)c(-c1cccc(Cl)c1)cc(=O)n2C [Tipifarnib (Zarnestra)] | 77.4
